Experimental data: PMC4336329 (PLoS ONE, 2015)
Screen size: about 310,000 compounds; about 2,200 (0.71%) showed an effect of 50% or more. The effect is printed as a negative number. This is one part of the list.

Molecular target: human ether-à-go-go-related gene (hERG) potassium channel (human, UniProt Q12809)
Experiment: primary screen, population patch clamp on CHO cells stably expressing hERG

Sequence of human ether-à-go-go-related gene (hERG) potassium channel (Q12809 whole entry, looked up): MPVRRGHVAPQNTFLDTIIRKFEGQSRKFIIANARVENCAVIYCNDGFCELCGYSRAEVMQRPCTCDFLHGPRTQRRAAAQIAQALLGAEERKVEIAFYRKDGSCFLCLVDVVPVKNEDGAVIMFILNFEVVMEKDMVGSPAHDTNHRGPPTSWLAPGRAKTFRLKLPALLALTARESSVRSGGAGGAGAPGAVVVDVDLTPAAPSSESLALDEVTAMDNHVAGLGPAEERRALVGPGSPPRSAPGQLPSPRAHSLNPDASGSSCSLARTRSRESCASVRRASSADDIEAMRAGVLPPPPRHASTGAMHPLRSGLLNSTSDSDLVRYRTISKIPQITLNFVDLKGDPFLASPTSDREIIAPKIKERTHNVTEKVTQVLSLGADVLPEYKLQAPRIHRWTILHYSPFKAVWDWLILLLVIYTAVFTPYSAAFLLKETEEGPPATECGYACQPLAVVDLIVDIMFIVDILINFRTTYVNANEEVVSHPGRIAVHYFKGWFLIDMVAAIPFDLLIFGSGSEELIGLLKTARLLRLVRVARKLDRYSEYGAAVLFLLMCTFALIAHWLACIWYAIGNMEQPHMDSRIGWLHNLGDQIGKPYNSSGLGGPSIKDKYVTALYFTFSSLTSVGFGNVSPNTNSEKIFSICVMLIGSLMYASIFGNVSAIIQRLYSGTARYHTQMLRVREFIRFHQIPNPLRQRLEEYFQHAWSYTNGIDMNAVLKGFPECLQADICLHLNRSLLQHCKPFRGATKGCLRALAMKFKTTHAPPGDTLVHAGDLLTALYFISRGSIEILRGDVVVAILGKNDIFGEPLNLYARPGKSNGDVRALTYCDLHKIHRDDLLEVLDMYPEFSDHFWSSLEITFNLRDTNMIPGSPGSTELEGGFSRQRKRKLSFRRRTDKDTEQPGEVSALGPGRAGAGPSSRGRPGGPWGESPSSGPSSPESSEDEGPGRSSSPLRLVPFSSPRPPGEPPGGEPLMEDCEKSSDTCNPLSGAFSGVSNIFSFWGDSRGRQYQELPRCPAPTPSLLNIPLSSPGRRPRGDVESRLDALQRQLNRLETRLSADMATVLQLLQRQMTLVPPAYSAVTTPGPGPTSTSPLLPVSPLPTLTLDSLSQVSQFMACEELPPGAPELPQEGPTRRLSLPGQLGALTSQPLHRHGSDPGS

Row | SMILES | hERG current change (%, negative = inhibition) at 1uM [%]
1 | OCC[C@@H]1C[C@@H](O)[C@H](O)[C@@]2(Cc3ccccc3CO2)O1 | 13.5
2 | O=C(COC(=O)c1ccccc1NCCO)Nc1cc(C(F)(F)F)ccc1N1CCOCC1 | -17.4
3 | CS(=O)(=O)Nc1ccc(S(=O)(=O)Nc2nccs2)cc1 | 6.6
4 | Cc1ccc(C(=O)NCCc2sc(C)nc2C)cc1 | 24.5
5 | COC(=O)c1sccc1NS(=O)(=O)c1ccccc1 | 15.6
6 | N#Cc1c2n(c(=S)n(-c3ccc(OC(F)F)cc3)c1=O)CCCCC2 | 1.46
7 | CCOc1cc(N2CCOCC2)c(OCC)cc1NC(=S)NCCCOC | 9.36
8 | COc1cc(CNc2ncc(-c3ccc(Br)cc3)n2C)cc(OC)c1O.O=C(O)C(=O)O | -25.5
9 | O=C(O)CCC(=O)Nc1ccccc1C(=O)NCc1ccco1 | 11.9
10 | Cc1cc(C(=O)COC(=O)CNS(=O)(=O)c2ccc3ccccc3c2)c(C)n1-c1ccccc1 | 18.9
11 | CCN(Cc1cc(=O)n2cc(Cl)c(C)c(Cl)c2n1)Cc1nc2ccccc2c(=O)[nH]1 | -9.62
12 | O=C(CSc1ccccc1)Nc1nnc(COc2ccc(Cl)cc2)s1 | 3.34
13 | Cc1ccc(SCCNCc2ccco2)cc1.Cl | 9.79
14 | CC(=O)/C(N=Nc1ccc(OC(F)(F)F)cc1)=C(\C)O | 8.19
15 | CCCCCOc1ccc2oc(=O)c3c(c2c1)CCCN3C(=O)CN1CCCC(C(=O)OCC)C1 (stereo not shown) | 6.69
16 | CCOc1cc(C(C(=O)NCC2CCCO2)N(C(=O)Cn2nnc3ccccc32)c2ccc(OC)c(OC)c2)ccc1O (stereo not shown) | 12.7
17 | COc1ccc(NC(=S)Nc2ccc3nsnc3c2)cc1 | 15.1
18 | O=C(Nc1cccnc1)c1cc(Br)c(Br)s1 | 5.59
19 | CCC(N1CCOC1=O)S(=O)(=O)c1ccc(C)cc1 (stereo not shown) | 11.9
20 | O=S(=O)(NCCCc1ccccc1)c1cccc2nsnc12 | 7.89
21 | Cl.OC(c1cccc(Cl)c1)c1nccc2ccccc12 (stereo not shown) | 13.6
22 | Cc1ccc(CC2SC(N=C(N)N)=NC2=O)cc1 (stereo not shown) | 15.2
23 | CCOC(=O)N1CCC(N2CCN(CCC(C)C)C(CCO)C2)CC1 (stereo not shown) | -2.19
24 | COC(=O)[C@H](Cc1ccccc1)NC(=O)N1CCN(c2ccc(F)cc2)CC1 | 6.96
25 | CCN(CC(=O)Nc1c(F)cccc1F)C(=O)Cn1[nH]c(=O)c2ccccc2c1=O | 1.04
26 | Cn1cnnc1SCC(=O)Nc1ccc(Oc2ccccc2)cc1 | 10
27 | CCc1ccc(-c2nc(CSCC(=O)N3CCN(c4ccccn4)CC3)c(C)o2)cc1 | 6.76
28 | CCn1c(SCC(N)=O)nnc1-c1cc2c(C)nn(-c3ccccc3)c2s1 | -8.6

Row | SMILES | hERG current change (%, negative = inhibition) at 1uM [%]
29 | Cc1cc(=O)oc2cc(OCC(=O)Nc3nccs3)ccc12 | 12.9
30 | CCCCN(C(=O)CSc1nnc2ccccn12)c1c(N)n(Cc2ccccc2)c(=O)[nH]c1=O | 19
31 | CC1CCN(C(=O)C2CCCN(S(=O)(=O)c3ccc4c(c3)CC(C)N4C(=O)C3CC3)C2)CC1 (stereo not shown) | 9.31
32 | COc1ccc(OC)c(S(=O)(=O)N/N=C\c2cn(CC(N)=O)c3ccccc23)c1 | 18.4
33 | O=C(O)CN1CCN(Cc2ccccc2)C1=O | 7.4
34 | Cc1ccc(SCc2c(C(=O)N/N=C/c3cccnc3)nnn2-c2nonc2N)cc1 | 16.6
35 | CC(C)(C)c1ccc(C(=O)Nc2ccc(O)c3c(=O)cc(-c4cccc(Cl)c4)oc23)cc1 | 11.8
36 | COc1ccc(C(=O)n2nnc3ccccc32)cc1OC | 9.96
37 | CN(C)CCCNc1oc(-c2ccc(Cl)cc2)nc1C#N | -6.72
38 | Cc1nn(S(=O)(=O)c2ccc(Cl)cc2)c(C)c1S(=O)(=O)N1CCOCC1 | 18.4
39 | Cc1ccc(C)c(S(=O)(=O)N2CCN(CC(=O)NC(C)c3ccccc3)CC2)c1 (stereo not shown) | 7.36
40 | COc1ccc(/C=c2\sc3nc(-c4ccccc4OC)nn3c2=O)c(OC)c1 | 6.69
41 | O=C(Nc1ccncc1)C1CCN(S(=O)(=O)c2cccc(C(F)(F)F)c2)CC1 | -5.26
42 | CCOC(=O)C1=C(C)n2c(s/c(=C3\C(=O)Nc4ccccc43)c2=O)=NC1c1ccc(OC)cc1 (stereo not shown) | 1.88
43 | CN(C)NC(=O)c1ccc([N+](=O)[O-])s1 | 11
44 | C=CCNc1nc(SC)nc2ccsc12 | 6.58
45 | CC(=O)c1cccc(NS(=O)(=O)c2cc(-c3cnc(C4CC4)o3)ccc2C)c1 | 22
46 | CCCN(C(=O)C(NC(=O)c1ccccc1)C(C)C)c1c(N)n(Cc2ccccc2)c(=O)[nH]c1=O (stereo not shown) | -1.72
47 | CCCCNC(=O)c1onc(CSc2ccccn2)c1C(=O)NCCCC | 3.06
48 | COc1cccc(-c2cc(-c3cccnc3)nc(N)c2C#N)c1 | 2.74
49 | CCOc1ccc(S(=O)(=O)N2CCN=C2Cc2ccccc2)cc1C | 14.4
50 | CC(C)NC(=O)CN(c1cccc([N+](=O)[O-])c1)S(=O)(=O)c1ccccc1 | 17.6
51 | CCN(CC(=O)NCc1ccc(Cl)cc1)C(=O)c1c(C)noc1C | 5.91
52 | O=C(NC1CCCCC1)C(=O)N(Cc1cccnc1)C(C(=O)NCc1ccco1)c1ccccc1 (stereo not shown) | 5.2
53 | N#Cc1cccc(Nc2c3c(nc4ccccc24)CCC3)c1 | -18
54 | CC1(C)CC(=O)C(N=Nc2cccnc2)=C(O)C1 | 6.55
55 | CC1CCC(C(C)C)C(OC(=O)Cn2c(-c3ccc(F)cc3)[n+](C)c3ccccc32)C1.[Cl-] (stereo not shown) | -53.9
